# In ChEMBL document CHEMBL4888484, “Replenishing the malaria drug discovery pipeline: Screening and hit evaluation of the MMV Hit Generation Library 1 (HGL1) against asexual blood stage Plasmodium falciparum ,using a nano luciferase reporter read-out” (2022):
# Values joined by “and” are separate entries in the source; they are usually repeats but may differ in a detail not shown here. Equal values may be shown once. The campaign covered roughly 150,000 compounds. About 540 (0.36%) showed an effect of 50% or more. This is one part of the list.
# Tested on: Plasmodium falciparum
# Assay: Primary screen in NF54 nanoGlo assay, in single point, at 2uM, 72h; a lower Z score goes with more inhibition
# Format: functional, Erythrocyte
# Details: timepoint 72 hour
Structure (SMILES),% Inhibition [%],Z score,% Inhibition (2 µM)
CS(=O)(=O)c1cnn(Cc2noc3c2CCCC3)c1,5,-0.66,–
CS(=O)(=O)CCC(=O)N(Cc1cccc2ccccc12)C1CC1,-12,1.71,–
CC(C)OCC(=O)N1CCC[C@](C)(F)C1,-2,0.32,–
CC(C)[C@H](Cn1cccn1)NCC(C)(C)Cc1ccccc1,-8,1.23,–
Cc1noc(C)c1CNc1ccc2c(c1)C(=O)N(C)C2=O,4,-0.6,–
CC1CCCC(CC(=O)N2C[C@@H](C)[C@H](C(N)=O)C2)C1 (some centres not stated),-9,1.22,–
O=C(NCc1ccco1)Nc1cccc(-c2nnco2)c1,-13,2.02,–
O=C(c1c[nH]nn1)N1CCOC[C@H]1c1nc(-c2cccs2)no1,-2,0.3,–
COc1ccc(C(=O)NC[C@H]2CCCN3CCCC[C@@H]23)cc1,-17,2.08,–
CC1CCCC(NC(=O)NCCN2C(=O)CCC2=O)CC1 (configuration not stated),-14,2.68,–
O=C(NC1CCCCC1)C(=Cc1cccc(O)c1)C(=O)NC1CCCCC1,-19,2.31,–
COc1cc(F)cc(CNC(=O)NCc2nn(C)cc2Cl)c1,-9,1.43,–
C[C@H](NC(=O)c1ccco1)c1nc(-c2ccc(=O)n(C)c2)no1,31,-4.55,–
O=C(Nc1nncs1)C(F)(F)C(F)(F)C(F)(F)C(F)(F)F,6,-0.74,–
CC(C)C(=O)N1CCC[C@H](c2nnc3ccccn23)C1,-1,0.07,–
CCC1CN(CCCN2C(=O)CNC2=O)CCC1c1ccccc1 (configuration not stated),33,-4.5,–
CC(C)(CN1CCCn2nc(CNC(=O)C3CCC3)cc2C1)N1CCOCC1,-11,1.41,–
Cc1c(NC(=O)C(=O)N(C)CCN(C)C)cccc1N(C)C,-12,1.64,–
CC(C)(C)c1ccc(C(=O)C(=O)NC2CCN(CC(N)=O)CC2)cc1,-3,0.55,–
CC1OCCC1(O)CN(Cc1ccccc1)C(=O)CC1CCCCC(=O)N1 (configuration not stated),22,-2.81,–
CN(C(=O)c1cc2ccccc2o1)[C@H]1CCCN(CCCc2ccccc2)C1,2,-0.24,–

Structure (SMILES),% Inhibition [%],Z score,% Inhibition (2 µM)
CCOC(=O)c1[nH]c(C)c(C(=O)N2CCC(CC(=O)NC3CCCCC3)CC2)c1C,-17,1.51,–
CN(CCN1CCCC1=O)S(=O)(=O)CCc1ccccc1,0,-0.02,–
CCCn1cc(CNC(=O)N(C)CC2(C)COC2)cn1,6,-0.76,–
CCOC(=O)c1ccccc1NC(=O)NC[C@H](c1cccnc1)c1c[nH]c2ccccc12,-7,1.3,–
Cc1cc(-c2cccc(C(=O)N3CC=C[C@@H]3C(C)C)c2)nc(N)n1,-12,1.37,–
CCc1ocnc1C(=O)N1CCC2(CC1)[C@H](O)C[C@]2(C)OC,-11,2.15,–
CC(C)OCCS(=O)(=O)N(C)C1Cc2ccccc2C1,7,-1.12,–
COc1ccc(OCc2nc(C(=O)N(C)[C@@H](C)c3ccon3)co2)cc1,-7,1.28,–
CN(C)C(=O)c1ccc(N2CCC3(CCCCC3)CC2)nc1,-8,0.81,–
Nc1ncccc1CN1CCOC[C@@H]1CC(=O)NCCn1cccn1,-11,1.25,–
Cc1n[nH]c(C(=O)N(C)Cc2ccns2)c1O,-12,1.93,–
CC[C@H](C)n1nc(NC(=O)NCC2(C3CC3)CCC2)cc1C,-4,0.39,–
CCCN1CCN(C(=O)CN2CCCC2=O)c2ccc(F)cc21,37,-5.36,–
CC(C#N)NC(=O)[C@@]12CCC[C@@H]1CN(Cc1ccccc1)C2 (some centres not stated),-7,1.01,–
Cc1n[nH]c(=O)c2cc(S(=O)(=O)N3CCN(c4ccccc4)CC3)cn12,-5,0.67,–
CCOC(=O)N1CC[C@H](NC(=O)c2cnc(C3CC3)nc2)C1,-8,1.49,–
Nc1nc(C2CC2)nc(N2CCO[C@H](c3ccccc3)C2)n1,5,-0.99,–
CN(C)c1ccc(CN2Cc3ccccc3OCC2=O)cc1,7,-0.83,–
COc1cccc([C@@H](O)Cn2nnc(Cc3ccccc3C)n2)c1,-2,0.4,–
O=C(Nc1nnc(C(F)F)s1)c1coc(CC2CC2)n1,-6,1.01,–
Cc1ccc(-c2cnc(C3CC3)o2)cc1S(=O)(=O)Nc1ccc(C(C)C)cc1,-8,1.5,–

Structure (SMILES),% Inhibition [%],Z score,% Inhibition (2 µM)
COC1(C(=O)NC2CCCN(c3cc(C)nn3C)C2=O)CCOC1 (configuration not stated),4,-0.5,–
CC(C)c1ccc([C@@H](NC(=O)NCc2ncn(C)n2)C(C)C)cc1,2,-0.29,–
CCc1nc2cc(-c3cccc(C(=O)NCC[C@H]4CCOC4)c3)ccc2o1,1,-0.22,–
CCNC(=O)[C@H]1CCN(c2nc(C)cc(C3CCC3)n2)C1,-11,1.2,–
O=C1[C@@H]2C[C@@H](O)CN2C(=O)CN1Cc1ccccc1,-18,1.57,–
O=C1Cc2ccccc2N1CCNS(=O)(=O)Cc1ccc(Cl)c(F)c1,-2,0.35,–
NC[C@H]1CCN(C(=O)c2cnc(-c3cc(Cl)cc(Cl)c3)nc2O)C1,-13,1.68,–
O=C(CN1CCCN(c2ccc(C(F)(F)F)cn2)CC1)Nc1ccccc1,0,0.05,–
Cc1ccc(CCNC(=O)Nc2ccc3c(c2)O[C@@H](C)C(=O)N3C)o1,-20,2,–
O=C(c1ccc2[nH]ccc2c1)N1CCN(CC2CC2)[C@@H]2CS(=O)(=O)C[C@@H]21,-5,0.62,–
Cc1cc(NCC(=O)N2CCCCCC2)ccc1Br,-6,0.66,–
C[C@]1(c2ccc(C#N)cc2)NC(=O)N(Cc2cccc3ccccc23)C1=O,-10,0.9,–
O=S(=O)(c1cccc(F)c1)N1CCN(c2nc3nccc(-c4cc(Cl)ccc4Cl)n3n2)CC1,-13,1.58,–
CCn1ccnc1C1CCN(C(=O)c2cc(CC(C)C)nn2CC)CC1,-10,1.63,–
COc1cc(OC)cc(S(=O)(=O)NC(=O)[C@H]2CC[C@H](c3ccccc3)C2)c1,-11,1.21,–
Cc1cc2nccc(NC(=O)N3CC[C@H](c4ccco4)C3)n2n1,-6,0.7,–
CC(C)[C@H](O)C(=O)N(C)CCN(C)C1CCCC1,-8,0.76,–
COc1ccc(-c2nc(-c3ccc(=O)n(C)c3)no2)c(OC)c1,33,-0.81,–
CC(C)Cn1c(-c2ccccn2)n[nH]c1=O,1,-0.18,–
CN1C(=O)CCC1C(=O)NC1COc2ccccc2C1O (configuration not stated),-10,1.56,–
O=C(NCc1ccccc1F)c1csc(CN2CCC(Cc3ccccc3)CC2)n1,-6,0.87,–

Structure (SMILES),% Inhibition [%],Z score,% Inhibition (2 µM)
COC1(C(=O)N2CC(C)OC(C)C2)CCNCC1 (configuration not stated),5,-0.99,–
Cc1ccc(C2=NN(c3nc(-c4ccccc4)c4cc(Cl)ccc4n3)[C@H](c3ccc4c(c3)OCO4)C2)cc1,3,-0.4,–
CC(C)(C#N)c1nc(Cc2csc(-c3ccccc3)n2)no1,-17,1.86,–
O=C(c1cc(-c2ccccc2)n[nH]1)N1CC(c2nc(-c3ncccn3)no2)C1,-8,1.58,–
CC1CC(C)CN(S(=O)(=O)NCC(C)(O)c2ccco2)C1 (configuration not stated),-8,0.86,–
NC(=O)c1nc(CN2CCn3nc(CCC(=O)NC4CC4)cc3C2)no1,4,-0.69,–
COC(=O)N[C@H](C(=O)NCc1ccc(-n2cnc3ccccc32)cc1Cl)C(C)C,6,-0.71,–
CO[C@@H](CS(=O)(=O)Nc1ccnc2cccnc12)C1CCCC1,-2,0.34,–
COc1cc2c(cc1OC)[C@@H](c1c(F)cccc1Cl)N(C(=O)COc1ccc(Cl)cc1)CC2,-6,0.59,–
NC(=O)CC[C@H]1CCCN(c2nnnn2-c2ccc(-c3ccccc3)cc2)C1,-14,1.91,–
CN(Cc1ccsc1)C(=O)NCc1cccnc1N1CCOCC1,-4,0.75,–
CN1CCN(C(=O)c2cc(COc3ccc(F)c(F)c3)on2)C[C@H]1c1ccccc1,-9,1.35,–
CC(N[C@H]1CS(=O)(=O)C[C@@H]1S(=O)(=O)c1cccs1)c1ccccc1 (some centres not stated),–,–,9% and 0%
C=CCONC(=O)Nc1ccccc1Cl,-5,0.7,–
CN(Cc1ccc2nonc2c1)C(=O)CCc1csc(N)n1,-18,1.77,–
O=C(O)[C@H]1CCCN1CCOc1ccccc1,-13,1.24,–
O=C1c2cccn2C[C@@H]1CC(=O)N1CCCCC1,-15,1.74,–
CS(=O)(=O)N1CCO[C@@H](CNC(=O)c2cccc3c2OCC3)C1,-3,0.54,–
Cc1ccn(CCC(=O)N2C[C@H]3COCC[C@@]3(O)[C@@H]3COCC[C@@H]32)n1,-3,0.28,–
Cc1cn2nc(N3CCc4nn(C(C)C)c(=O)cc4C3)sc2n1,29,-3.28,–
COc1ccccc1N1CCN2c3ccc(C(F)(F)F)cc3CC(C(=O)NC(C)C)C2C1 (configuration not stated),-9,1.01,–
